Consider 3 compounds from PMC9693575, “Isopropyl Amino Acid Esters Ionic Liquids as Vehicles for Non-Steroidal Anti-Inflammatory Drugs in Potential Topical Drug Delivery Systems with Antimicrobial Activity” (International Journal of Molecular Sciences, 2022).

The text on this data set: This study aims to compare the influence of amino acid structure on the physicochemical properties of NSAID salts with the isopropyl ester of amino acids.

`CC(C)OC(=O)[C@@H](N)C(C)C.COc1ccc2cc([C@H](C)C(=O)O)ccc2c1` [[L-ValOiPr][NAP]]: the “Solubility in Water” value came out at 3.988 ± 0.020 g dm^−3; the “Solubility in Water, as active substance” value was 2.358 ± 0.020 gAS dm^−3; the “Solubility in Phosphate Buffer pH = 5.4” value was 2.323 ± 0.033 g dm^−3; the “Solubility in Phosphate Buffer pH = 5.4, as active substance” value is listed as 1.320 ± 0.033 gAS dm^−3. The “Solubility in Phosphate Buffer pH = 7.4” value amounted to 5.484 ± 0.012 g dm^−3 and the “Solubility in Phosphate Buffer pH = 7.4, as active substance” value came out at 3.241 ± 0.012 gAS dm^−3.

Consider `COc1ccc2cc([C@H](C)C(=O)O)ccc2c1.CSCC[C@H](N)C(=O)OC(C)C` [[L-MetOiPr][NAP], L-methionine isopropyl ester naproxenate], for which the “Solubility in Water” value is given as 3.011 ± 0.038 g dm^−3; the “Solubility in Water, as active substance” value was determined as 1.645 ± 0.038 gAS dm^−3; the “Solubility in Phosphate Buffer pH = 5.4” value worked out at 1.509 ± 0.015 g dm^−3; the “Solubility in Phosphate Buffer pH = 5.4, as active substance” value was 0.824 ± 0.015 gAS dm^−3. The “Solubility in Phosphate Buffer pH = 7.4” value was 4.404 ± 0.033 g dm^−3 and the “Solubility in Phosphate Buffer pH = 7.4, as active substance” value is 2.405 ± 0.033 gAS dm^−3.

With `CC[C@H](C)[C@H](N)C(=O)OC(C)C.COc1ccc2cc([C@H](C)C(=O)O)ccc2c1` [[L-IleOiPr][NAP], L-isoleucine isopropyl ester naproxenate], the “Solubility in Water” value is listed as 5.048 ± 0.027 g dm^−3; the “Solubility in Water, as active substance” value came out at 2.881 ± 0.027 gAS dm^−3; the “Solubility in Phosphate Buffer pH = 5.4” value was determined as 3.206 ± 0.017 g dm^−3; the “Solubility in Phosphate Buffer pH = 5.4, as active substance” value turned out to be 1.829 ± 0.017 gAS dm^−3. In addition, the “Solubility in Phosphate Buffer pH = 7.4” value was determined as 7.736 ± 0.030 g dm^−3 and the “Solubility in Phosphate Buffer pH = 7.4, as active substance” value worked out at 4.415 ± 0.030 gAS dm^−3.
